The values that follow come from patent US20090176209A1 (DOMANTIS, published 2009).

For the assay, the target named is T1, BSA (Sigma), biotinylated (UniProt P02769).
T1 construct: Negative control surface
As to the kind of experiment: protein-DNA complex captured on biotinylated protein in streptavidin-coated PCR tubes; co-captured DNA detected by PCR and gel.

T1 sequence (P02769 25-607 limits assumed): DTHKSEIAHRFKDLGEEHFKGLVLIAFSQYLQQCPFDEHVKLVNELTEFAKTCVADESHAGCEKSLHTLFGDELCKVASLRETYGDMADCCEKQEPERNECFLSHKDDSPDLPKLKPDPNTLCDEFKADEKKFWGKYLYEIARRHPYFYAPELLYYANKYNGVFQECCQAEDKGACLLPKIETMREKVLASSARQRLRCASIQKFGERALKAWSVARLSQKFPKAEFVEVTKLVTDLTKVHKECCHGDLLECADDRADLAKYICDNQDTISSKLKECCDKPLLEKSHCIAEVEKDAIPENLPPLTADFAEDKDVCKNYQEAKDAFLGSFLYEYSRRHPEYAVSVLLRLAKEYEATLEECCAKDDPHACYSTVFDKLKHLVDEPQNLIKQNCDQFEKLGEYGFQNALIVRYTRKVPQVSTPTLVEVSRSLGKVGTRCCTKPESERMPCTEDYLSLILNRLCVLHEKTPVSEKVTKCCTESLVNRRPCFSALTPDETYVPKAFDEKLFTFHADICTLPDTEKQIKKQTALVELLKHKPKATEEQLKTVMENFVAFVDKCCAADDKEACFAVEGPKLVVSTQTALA

B1: scFv(31IJ1)-scArc fusion protein (pIE7a^nA-scFv(31IJ1), n=1-4) (scFv)
chain: MAEVQLLESGGGLVQPGGSLRLSCAASGFTFSSYAMSWVRQAPGKGLEWVSGINHAGVRTWYADSVKGRFTISRDNSKNTLYLQMNSLRAEDTAVYYCAKRKVGFDYWGQGTLVTVSSGGGGSGGGGSGGGGST[about 100 residues left out here]KEAAAKEAAAKEAAAKEAAAKEAAAKEAAAGGGSGGGHMKGMSKMPQFNLRWPREVLDLVRKVAEENGRSVNSEIYQRVMESFKKEGRIGAGGGSGGGSGGGSGGGHMKGMSKMPQFNLRWPREVLDLVRKVAEENGRSVNSEIYQRVMESFKKEGRIGAGGGSGGGSYPYDVPDYA
notes: In vitro translated in the presence of 3F10 αHA mAb, assayed as protein-DNA complex with 1-4 Arc operators; also called scFv-scArc; scFv-scArc fusion protein
As for B1, the binding result is on record as “no binding”.
